Among all 310,000 compounds or so, about 2,200 (0.71%) showed an effect of 50% or more. Effects have a minus sign here. This is one part of the list.
Biological target: human ether-à-go-go-related gene (hERG) potassium channel (human, UniProt Q12809)
Assay: primary screen, population patch clamp on CHO cells stably expressing hERG

Sequence of human ether-à-go-go-related gene (hERG) potassium channel (Q12809 whole entry, looked up): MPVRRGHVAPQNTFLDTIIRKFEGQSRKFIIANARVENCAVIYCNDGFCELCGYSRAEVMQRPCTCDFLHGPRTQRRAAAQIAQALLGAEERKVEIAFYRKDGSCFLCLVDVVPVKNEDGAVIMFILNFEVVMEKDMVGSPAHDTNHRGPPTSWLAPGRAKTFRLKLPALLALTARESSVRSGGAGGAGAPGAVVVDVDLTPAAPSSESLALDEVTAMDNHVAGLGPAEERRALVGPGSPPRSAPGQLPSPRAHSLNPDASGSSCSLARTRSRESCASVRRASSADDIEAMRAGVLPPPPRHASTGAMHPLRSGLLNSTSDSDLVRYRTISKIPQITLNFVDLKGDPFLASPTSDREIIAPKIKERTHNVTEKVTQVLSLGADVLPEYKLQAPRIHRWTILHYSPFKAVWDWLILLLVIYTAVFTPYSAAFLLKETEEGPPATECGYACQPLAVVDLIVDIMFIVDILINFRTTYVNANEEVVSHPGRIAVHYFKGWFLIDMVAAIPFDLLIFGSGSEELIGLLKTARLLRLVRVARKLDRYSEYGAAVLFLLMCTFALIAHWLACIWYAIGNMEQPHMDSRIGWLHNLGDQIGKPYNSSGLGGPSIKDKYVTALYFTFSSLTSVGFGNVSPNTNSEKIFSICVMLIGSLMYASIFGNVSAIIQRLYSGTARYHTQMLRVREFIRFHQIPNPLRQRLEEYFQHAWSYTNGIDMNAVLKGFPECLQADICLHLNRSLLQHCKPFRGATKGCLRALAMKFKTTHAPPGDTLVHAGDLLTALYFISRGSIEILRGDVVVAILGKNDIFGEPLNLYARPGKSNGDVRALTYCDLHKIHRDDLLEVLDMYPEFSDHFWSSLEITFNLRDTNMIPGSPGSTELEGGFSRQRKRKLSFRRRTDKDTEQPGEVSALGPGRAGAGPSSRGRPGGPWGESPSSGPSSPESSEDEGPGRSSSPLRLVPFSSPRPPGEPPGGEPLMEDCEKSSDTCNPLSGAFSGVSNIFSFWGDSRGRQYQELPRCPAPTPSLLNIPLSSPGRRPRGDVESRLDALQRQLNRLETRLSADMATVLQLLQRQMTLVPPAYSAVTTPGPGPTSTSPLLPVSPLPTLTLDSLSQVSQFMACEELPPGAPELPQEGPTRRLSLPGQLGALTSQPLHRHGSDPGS

Compound	hERG current change (%, negative = inhibition) at 1uM [%]
Cc1ccccc1-c1nnc(SCCC(=O)N2CCOCC2)o1	11.2
O=C(O)/C=C\C(=O)O.c1cc(CN2CCCCC2)cc(OCCCNc2nc3ccccc3s2)c1	-10.8
COc1ccccc1N(Cc1ccccc1)S(=O)(=O)c1cccc(C(=O)NCC2CCCO2)c1 (centres unmarked)	2.24
Cc1ccc(C)c(Cn2c(=O)n(C)c(=O)c3sccc32)c1	11.8
Cc1c(NC(=O)Nc2cccc(Cl)c2)c(=O)n(-c2ccccc2)n1C	9.11
Cc1ccc(F)cc1NC(=O)CN1CCN(c2ccccn2)CC1	3.71
CCOC(=O)C1=C(N)Oc2ccc3ccccc3c2C1c1cccc(O)c1 (centres unmarked)	10.9
O=C(CN1CCN(S(=O)(=O)c2ccc(F)cc2)CC1)NCC1(N2CCOCC2)CCCCC1	3.2
Cc1nnc(SCC(=O)NCCN2C(=O)CSC2=O)s1	6.04
CC(=O)N1CCN(C(=O)Cn2c(=O)oc3ccccc32)CC1	4.5
CN(C)c1ccc(/C=N/NC(=O)c2ccc(-n3cnnn3)cc2)cc1	7.21
O=C1c2ccccc2S(=O)(=O)c2cc(C(=O)N3CCC(C(=O)N4CCCCC4)CC3)ccc21	12.7
Cc1ccc(C(C(=O)NC2CCCC2)N(C(=O)c2csnn2)C2CCCC2)o1 (centres unmarked)	-5.39
NNC(=O)COc1cccc2cccnc12	11.8
O=C(c1ccc2c(c1)C(=O)N(c1ccc(Cl)cc1)C2=O)N1CCN(c2ccccn2)CC1	14.9
O=C(Nc1ccccc1)Nc1cccc2cccnc12	-0.516
COc1ccc(NC(=O)N2c3ccccc3CC2C)cc1OC (centres unmarked)	-4.96
COc1ccccc1C(=O)NCCN=C1NS(=O)(=O)c2ccccc21	5.64
CCCCOc1ccc(C(=O)Nc2ccc(C)cc2[N+](=O)[O-])cc1	5.12
CC(C)c1ccc([N+](=O)[O-])cc1S(=O)(=O)N1CCN(C)CC1	8.19
CC(=O)c1c(C)nc(C)nc1NC(=O)C(C)C	8.35
CC(=O)Nc1ccc(Nc2ncnc(N)c2[N+](=O)[O-])cc1	12.8
Cc1ccc(NC(=O)COC(=O)/C=C/c2cccs2)c(C)c1	5.19

Compound	hERG current change (%, negative = inhibition) at 1uM [%]
COc1ccc(N2CCN(C(=O)Nc3cccc(C(F)(F)F)c3)CC2)cc1	-2.81
CCOC(CCNC(=O)c1cn(-c2cccc(C)n2)cn1)OCC	4.12
O=C(N/N=C/c1ccc(Br)s1)c1ccccc1[N+](=O)[O-]	10.3
N#CC[C@H](c1ccccc1)N1CCN(Cc2ccccc2)CCC1=O	9.18
CCOc1ccc(Br)cc1CNc1ccc2c(c1)OCCO2	9.14
CCOC(=O)N1CCN(c2cc(=O)n(-c3ccc(OC)cc3)c(=O)[nH]2)CC1	6.48
Cc1cc(C)nc(SCC(=O)Nc2ccc(S(=O)(=O)Nc3onc(C)c3C)cc2)n1	3.6
CCOc1cnc(-c2c(-c3ccccc3Cl)noc2C)o1	14
Cc1ccc(NC(=O)COC(=O)/C=C/c2cccs2)cc1	1.83
O=C(CCn1c(=O)oc2ccccc21)Nc1ccon1	16.6
COc1cc(CC(=O)OCC(=O)Nc2ccc([N+](=O)[O-])cc2)cc(OC)c1OC	1.31
CC1Cc2ccccc2N1C(=O)c1cc2sccc2n1Cc1ccccc1 (centres unmarked)	14.3
CN(CC(=O)NC(=O)NCc1ccccc1)CC(=O)Nc1ccc(Cl)c(C(F)(F)F)c1	7.19
Cc1ccc(S(=O)(=O)NN2C(=O)/C(=C/c3cccc(F)c3)SC2=S)cc1	12.7
CC1=C(C(=O)Nc2ccc(C)cc2)C(c2ccc(N(C)C)cc2)NC(=O)N1 (centres unmarked)	10.8
CCn1nnnc1SCC(=O)NNC(=O)C1CCCCC1	0.727
COc1ccc(OC)c(Cc2nnc(CCC(=O)N3CCN(C4CCCC4)CC3)o2)c1	8.71
O=C(NCC1CCCO1)c1cc2nc(-c3ccco3)cc(C(F)(F)Cl)n2n1 (centres unmarked)	4.95
CCOc1cc(/C=N/NC(=O)c2cccnc2)ccc1OCc1ccc(C(=O)OC)o1	14.1
CCn1cc(Br)c(C(=O)NC(=S)Nc2ccc(C(=O)OC)cc2)n1	4.44
CCc1nc2oc(C(=O)c3ccccc3)c(N)c2c2c1COC(C)(C)C2	7.16
COCCNS(=O)(=O)c1ccc(C2CNC(=O)C2)cc1 (centres unmarked)	11.3
NC(=O)SCC(=O)Nc1ccc(Cl)cc1	15.6

Compound	hERG current change (%, negative = inhibition) at 1uM [%]
O=S(=O)(NCCCCNS(=O)(=O)c1c(F)cccc1F)c1ccc2c(c1)OCCO2	11
CC(C)(C)n1cccc1/C=C1\C(=O)NC(=O)N(c2ccccc2)C1=O	17.6
Cc1ccc(OC(=O)N2CCOCC2)cc1	13.5
O=C(COc1ccc(F)cc1Cl)Nc1cccc(S(=O)(=O)N2CCCC2)c1	8.43
O=C(Nc1ccnn1C1CCN(C2CCOCC2)CC1)c1cccc(F)c1	1.92
O=C(NCCCSc1ccccc1)c1ccc(=O)[nH]c1	19.6
CCOc1cc(/C=C/c2cc(C(=O)O)c3ccccc3n2)ccc1OC	7.93
COc1cccc2c1CCC(NC(C)=O)C2=O (centres unmarked)	23
CC(=O)Nc1ccc(NC(=O)c2ccc(C3SCC(=O)N3CCc3ccccc3)cc2)cc1 (centres unmarked)	14.2
c1ccc(OCCCn2nnc(-c3ccncc3)n2)cc1	8.23
O=C(c1ccc(F)cc1)N1CCC(C(=O)N2CCN(S(=O)(=O)c3cccc([N+](=O)[O-])c3)CC2)CC1	5.11
O=C(Cn1c(COc2ccccc2)nc2ccccc21)Nc1cc(Cl)c(Cl)cc1Cl	3.53
CNc1ccccc1C(=O)OCC(=O)Nc1ccc2c(c1)OCO2	5.33
Cc1ccc(C(=O)N2CCN(c3ccc(N4CCOCC4)nn3)CC2)cc1C	-10.2
Cc1nc(CS(=O)(=O)c2ccccn2)sc1C(=O)NNC(=O)c1ccccc1	11.5
COCCNC(=O)CCC1CCN(Cc2cccc(Oc3ccccc3)c2)CC1	-27.3
CN1C2C=C(N(C(=O)c3ccc(Cl)cc3)c3ccccc3)CC1CC2.Cl (centres unmarked)	-69.8
COc1ccc(NC(=O)c2ccc(S(=O)(=O)NCc3cccnc3)cc2)cc1	-13.3
CCCN1CCC(=O)N([C@H](CO)c2ccccc2)CC1	9.74
C[C@]12CC[C@@H]3c4ccc(O)cc4CC[C@H]3[C@@H]1CCC2=O	12
O=C(NNC(=O)c1ccc(O)c(Cl)c1)c1cccc(S(=O)(=O)N2CCOCC2)c1	12
COCCCNC(=O)CN(c1cc(C(F)(F)F)ccc1Cl)S(C)(=O)=O	0.758
COc1ccc(/C=C/C(=O)c2ccc(NS(=O)(=O)c3ccc(C)cc3)cc2)cc1O	10.9

Compound	hERG current change (%, negative = inhibition) at 1uM [%]
CCCCNC(=NCc1cccc(C(F)(F)F)c1)Nc1ccccc1	5.43
COc1cc2c(cc1NC(=O)Nc1cccc(C)c1)oc1ccccc12	6.35
CCC(CC)C(=O)OCC(=O)Nc1cccc(S(=O)(=O)N(C)c2ccccc2)c1	11.5
COc1cc(/C=C2/C(=N)N3C=CSC3=NC2=O)ccc1OCCCOc1ccccc1C	13
Cc1ccc(C(C)C)cc1S(=O)(=O)NC1CC(C)(C)NC(C)(C)C1	0.807
OCCN(Cc1ccccc1)CC1CC2C=CC1C2 (centres unmarked)	-8.4
O=C(Cn1cncn1)NCc1ccc(Cl)cc1	10.2
O=c1[nH]c(=S)n(C2CCCCC2)c(O)c1/C=N/N1CCOCC1	1.45
O=C(C1CCOCC1)N1CCC(CO)(CCc2ccccc2)CC1	6.45
Cc1[nH]c2ccccc2c1/C=C(/C#N)C(=O)NC(C)C	7.69
CCC(NC(=O)C1(C)CC1(Br)Br)c1ccc(C)cc1 (centres unmarked)	7.95
CC(=O)N1CCc2cc(S(=O)(=O)Nc3ccccc3N3CCN(C)CC3)ccc21	3.13
Nc1nc(-c2ccccc2)cc(N2CCCCC2)n1	-8.1
c1ccc(Cc2noc(CN3CCCC(CN4CCOCC4)C3)n2)cc1 (centres unmarked)	5.86
CCOc1ccc(CCNC(=O)C(C)n2nc(C)n3c(cc4occc43)c2=O)cc1OCC (centres unmarked)	10.1
CC(C)CC(=O)Nc1ccccc1N1CCN(C(=O)c2ccccc2)CC1	6.21
O=C(OCC1COc2ccccc2O1)c1ccccc1F (centres unmarked)	1.69
Cc1nn(C)c(Cl)c1C(=O)NCC(=O)Nc1ccc(C(C)C)cc1	5.2
CCCC(=O)Nc1cc(C)c(NC(=O)c2ccco2)cn1	13.7
CC(/C=C/c1ccccc1F)=N\NC(=O)c1cccc(F)c1	13.5

Reference: publication PMC4336329 (PLoS ONE, 2015)
